Assay results published in ChEMBL document CHEMBL4888484, “Replenishing the malaria drug discovery pipeline: Screening and hit evaluation of the MMV Hit Generation Library 1 (HGL1) against asexual blood stage Plasmodium falciparum ,using a nano luciferase reporter read-out” (2022).
Among all 150,000 compounds or so, about 540 (0.36%) showed an effect of 50% or more. This is one part of the list.

What follows are compounds tested on Plasmodium falciparum (assay: Primary screen in NF54 nanoGlo assay, in single point, at 2uM, 72h; a lower Z score goes with more inhibition). Settings: timepoint 72 hour.
Assay type: functional, Erythrocyte
`O=C(OCc1nnc(-c2ccccc2C(F)(F)F)o1)C1(O)CCCCC1` was tested, and the “% Inhibition” value was -8% and the Z score was 0.88. With `CC(C)CNC(=O)[C@@H]1Cc2[nH]cnc2C2(CCN(Cc3ccsc3)CC2)N1` the “% Inhibition” value was -9% and the Z score was 1.46. In the case of `CC[C@@]1(c2cnn(C)c2)NC(=O)N(Cc2ccnn2C)C1=O`, the “% Inhibition” value is reported as 2% and the Z score is reported as -0.28. For `Cc1nccn1-c1ncnc2c(F)cccc12`, the “% Inhibition” value was -11% and the Z score was 1.45. For `N#Cc1ccc(Cl)c(Br)c1`, the “% Inhibition” value was -12% and the Z score was 1.52. `CCC(CC)(CCC#N)CN1CCN(C)[C@@H](C)C1` was tested, and the “% Inhibition” value was -2% and the Z score was 0.31. In the case of `CO[C@@]12CC[C@@H](O)C[C@@H]1N(Cc1ccccc1OCCO)CC2`, the “% Inhibition” value is reported as 6% and the Z score is reported as -0.95. `Nc1c(F)cc(Cl)cc1C(=O)NCCC(F)(F)F` was tested, and the “% Inhibition” value was -4% and the Z score was 0.37. In the case of `O=C(O[C@@H](c1ccccc1)N1C(=O)C(C(F)(F)F)(C(F)(F)F)c2ccccc21)C(C(F)(F)F)C(F)(F)F`, the “% Inhibition” value is reported as 31% and the Z score is reported as -1.14. With `Cn1cc(C2=CCCN(S(=O)(=O)c3ccc(Cl)cc3)C2)cn1` the “% Inhibition” value was -13% and the Z score was 1.5. In the case of `Cc1noc(C)c1-c1n[nH]c2c1CN(Cc1nc3cccnc3n1C)CC2`, the “% Inhibition” value is reported as -1% and the Z score is reported as 0.16. In the case of `Cc1cc(C)n(CCCN[C@H]2CCCN(CCCc3ccccc3)C2)n1`, the “% Inhibition” value is reported as -7% and the Z score is reported as 0.97. With `O=C1CNC[C@@H](C(=O)N2CCC(c3ccccc3)(c3ccccc3)CC2)N1` the “% Inhibition” value was 5% and the Z score was -0.93. For `O=C(Cn1nc(N2CCCCCC2)c2ccccc2c1=O)Nc1ccccc1F`, the “% Inhibition” value was -8% and the Z score was 1.39. With `CCOC1CC(CC(=O)N2c3ccncc3N3CCC2C3)C1` (stereo not drawn) the “% Inhibition” value was 4% and the Z score was -0.55. `COc1ccc(OC)c([C@H](C)Nc2ccc(C(N)=O)nn2)c1` was tested, and the “% Inhibition” value was -15% and the Z score was 2. For `CC1COC(c2ccccc2)CN1C(=O)CCc1ccc(C(=O)O)cc1` (stereo not drawn), the “% Inhibition” value was 2% and the Z score was -0.32. In the case of `CCCc1oncc1C(=O)N1CCC[C@H](N2CCc3ccccc3C2)C1`, the “% Inhibition” value is reported as -21% and the Z score is reported as 3.89. For `COC[C@H](NCc1nncn1C)c1ccc(C)o1`, the “% Inhibition” value was -2% and the Z score was 0.29. With `Cc1nc(-c2cnccn2)nc2c1CC(=O)N2C[C@H]1CCCO1` the “% Inhibition” value was -19% and the Z score was 2.66. With `CC(C)C[C@@H]1N[C@H](C(=O)O)Cc2cn(Cc3nccn3C)c3cccc1c23` the “% Inhibition” value was -3% and the Z score was 0.4. With `CC(C)(C)CC(=O)Nc1nc2c(s1)C[C@@H]1[C@](C)(CO)[C@H](O)CC[C@@]1(C)[C@@H]2CC(=O)NC1CCCC1` the “% Inhibition” value was -4% and the Z score was 0.8. `OC[C@H](CC1OCCO1)Nc1ccnc(Cc2ccccc2)n1` was tested, and the “% Inhibition” value was 0% and the Z score was -0.03. With `CN(CCNc1nc(-c2cccnc2)nc2c1cnn2C)S(C)(=O)=O` the “% Inhibition” value was 0% and the Z score was 0.06. `COc1ccc(NC(=O)CS(=O)(=O)Cc2cccnc2)cc1OC(F)F` was tested, and the “% Inhibition” value was -18% and the Z score was 1.64. `O[C@@H](CNCc1cccnc1)COc1cccc2ccccc12` was tested, and the “% Inhibition” value was -2% and the Z score was 0.21. With `CCn1cc(CCN2CCN(c3nccc4sccc34)CC2)cn1` the “% Inhibition” value was 5% and the Z score was -0.64. `c1ccc2oc(CN3CCN4CCC[C@H]4C3)cc2c1` was tested, and the “% Inhibition” value was -9% and the Z score was 1.35. For `CCC(C)(C)C(=O)N1CCN(c2ccc(NC(=O)c3ccco3)cn2)CC1`, the “% Inhibition” value was -17% and the Z score was 2.33. For `C[C@H]1CCN(Cc2nc(N)nc(N(C)C)n2)c2ccccc21`, the “% Inhibition” value was 9% and the Z score was -1.24. With `Cc1n[nH]cc1CN[C@H]1CCN(Cc2ccccc2)c2ccccc21` the “% Inhibition” value was 17% and the Z score was -2.17. In the case of `CC(C)n1cnnc1CNC(=O)c1nn(C)cc1Cl`, the “% Inhibition” value is reported as -10% and the Z score is reported as 1.88. With `COc1ccc(N2CCN(C(=O)c3cnn(C)c3C3CCN(C(=O)OC(C)(C)C)CC3)CC2)cc1` the “% Inhibition” value was -9% and the Z score was 1.42. For `COc1cc(NS(=O)(=O)CCNS(=O)(=O)c2ccccc2)c(OC)cc1Cl`, the “% Inhibition” value was 0% and the Z score was -0.04. In the case of `CCNc1ccnc(NCC(=O)NC(C)(C)C)n1`, the “% Inhibition” value is reported as -5% and the Z score is reported as 0.94. With `O=C(NOCc1ccccc1)[C@H]1CC1(Cl)Cl` the “% Inhibition” value was 1% and the Z score was -0.18. For `Cc1nc2c(c(=O)[nH]1)CCN(c1ncccc1C(=O)N1C[C@@H]3CC[C@H]1C3)CC2`, the “% Inhibition” value was -11% and the Z score was 2.11. For `COc1ccc(N2CCCC2=O)c(NC(=O)Cn2cnc3ccccc3c2=O)c1`, the “% Inhibition” value was 12% and the Z score was -1.49. In the case of `Cc1ccccc1-c1ccc(C(=O)NC2CCOCC2)nc1`, the “% Inhibition” value is reported as 0% and the Z score is reported as 0.01. For `O=C(CCn1cncn1)N1CCN(Cc2ccc(-c3cccc(Cl)c3)s2)CC1`, the “% Inhibition” value was 11% and the Z score was -1.55. `CN(CCc1ccccc1)[C@H]1CCCN(Cc2cccc3cccnc23)C1` was tested, and the “% Inhibition” value was -10% and the Z score was 1.81. For `N#CCCN1CCN(c2cc(C(=O)O)c3cc(NC(=O)COc4ccccc4)ccc3n2)CC1`, the “% Inhibition” value was -7% and the Z score was 0.81. With `CCCc1cc(C(=O)N(Cc2ccco2)C2CCN(C)CC2)no1` the “% Inhibition” value was -6% and the Z score was 0.77. For `CCC(C)C(CO)NC(=O)c1cccc[n+]1[O-]` (stereo not drawn), the “% Inhibition” value was -17% and the Z score was 1.47. In the case of `Cc1ccc2ncc(-c3cncc(N)c3)cc2c1`, the “% Inhibition” value is reported as -2% and the Z score is reported as 0.41. With `CCN(CC(=O)Nc1ccc(NC(C)=O)cc1)Cc1cc(Cl)cc2c1OCOC2` the “% Inhibition” value was -20% and the Z score was 2.78. `CCCc1cncnc1N[C@H]1CCOC[C@@H]1OCCN(C)C` was tested, and the “% Inhibition” value was -1% and the Z score was 0.25. With `COc1ccccc1CCNC(=O)c1csc(NC2CC2)n1` the “% Inhibition” value was -3% and the Z score was 0.34. For `CNc1cc([C@H]2C[C@@H](NC(=O)C3=Cc4ccccc4OC=C3)C2)ncn1`, the “% Inhibition” value was -17% and the Z score was 3.15. For `CCCNC(=O)C1C(c2cccc(NC(=O)c3cccc(Cl)c3)c2)OC(=O)N1Cc1ccc(C)cc1` (stereo not drawn), the “% Inhibition” value was -8% and the Z score was 1.28. With `CN(CC(=O)Nc1cc(S(=O)(=O)N2CCCC2)ccc1Cl)Cc1cccs1` the “% Inhibition” value was 4% and the Z score was -0.5. In the case of `CC(=O)N1CCc2c(NC(=O)NC[C@H]3CCCS3(=O)=O)cccc21`, the “% Inhibition” value is reported as 9% and the Z score is reported as -1.83. `COc1ccc2c(=O)c(C(=O)c3ccncc3)cn(CC(=O)Nc3c(C)cccc3C)c2c1` was tested, and the “% Inhibition” value was 3% and the Z score was -0.42. In the case of `CCNC(=O)[C@H]1CCN(CC(=O)NC2CCCCCCC2)C1`, the “% Inhibition” value is reported as -1% and the Z score is reported as 0.28. With `CCOCC(=O)N[C@H]1CC(=O)Nc2ccccc21` the “% Inhibition” value was -11% and the Z score was 1.52. With `COC(=O)C1CCN2C(=O)N(c3ccc(F)cc3C)C(=O)C2C1` (stereo not drawn) the “% Inhibition” value was -15% and the Z score was 2.31. With `CS(=O)(=O)c1ccsc1NC(=O)C[C@H](n1cccn1)C(F)(F)F` the “% Inhibition” value was -10% and the Z score was 0.98. `COCC[C@H](NC(=O)COc1cc(C)ccc1C)C(N)=O` was tested, and the “% Inhibition” value was -27% and the Z score was 2.75. `COc1ccccc1-c1c(Cc2ccccc2)nn2c(C(F)(F)F)cc(-c3cccs3)nc12` was tested, and the “% Inhibition” value was -9% and the Z score was 1.67. In the case of `Cc1nc2ccccc2n1Cc1cc(C(=O)N(C)Cc2cccnc2)no1`, the “% Inhibition” value is reported as -4% and the Z score is reported as 0.58. With `Cc1nc(NS(=O)(=O)c2ccccc2)sc1C(=O)NCc1ccco1` the “% Inhibition” value was 4% and the Z score was -0.49. `O=C1OCC[C@@H]1N1CCN(C(=O)c2ccc(F)cc2)CC1` was tested, and the “% Inhibition” value was -11% and the Z score was 0.97. For `Cc1ccc(CN(C(=O)c2cnn(C(C)C)c2)C2CCCC2)s1`, the “% Inhibition” value was -13% and the Z score was 1.17. In the case of `Cc1cc(C)n(CCC(=O)N2CCN(c3nonc3C)CC2)n1`, the “% Inhibition” value is reported as -7% and the Z score is reported as 1.19. With `CCCn1c(=O)c(C(=O)NC[C@H]2CCCO2)nn(-c2ccc(Cl)cc2)c1=O` the “% Inhibition” value was 0% and the Z score was 0.07. For `COCCn1c(C)cnc1[C@H]1CCN(C(=O)c2ccc(OC)c(F)c2)C1`, the “% Inhibition” value was -8% and the Z score was 1.13. With `Cc1cccnc1CN(CC1CCCO1)C1CCS(=O)(=O)C1` (stereo not drawn) the “% Inhibition” value was -11% and the Z score was 1.1. For `O=C(CNC(=O)[C@H]1C[C@@H]1c1ccncc1)NC1CCCCC1`, the “% Inhibition” value was 3% and the Z score was -0.36. `O=C(COc1ccccc1)Nc1ccc(C(c2ccccc2)(c2ccccc2)c2ccccc2)cc1` was tested, and the “% Inhibition” value was -4% and the Z score was 0.51. `Cc1nc(C)c(CC(=O)Nc2cccc(Br)c2)c(=O)[nH]1` was tested, and the “% Inhibition” value was -13% and the Z score was 1.45. For `O=C(c1cccs1)N1CCC[C@H](c2nnc3ccccn23)C1`, the “% Inhibition” value was 2% and the Z score was -0.35. `CC(C)C[C@H]1C(=O)N2C[C@@H](N(C)C)C[C@H]2CN1C(=O)Cc1ccsc1` was tested, and the “% Inhibition” value was -10% and the Z score was 1.17. For `OCc1cnccc1N1CCC[C@H](n2ccnc2)C1`, the “% Inhibition” value was -12% and the Z score was 1.52. In the case of `CN(C)C(=NCCCOC1CCOCC1)N(C)C`, the “% Inhibition” value is reported as 0% and the Z score is reported as 0.01. For `COCCc1nc(CN2CC[C@H](N(C)C)C2)n(Cc2cccc(C)c2)n1`, the “% Inhibition” value was -15% and the Z score was 1.93. For `Nc1cccc(Oc2c(F)c(F)c(Oc3cccc(N)c3)c(F)c2F)c1`, the “% Inhibition” value was 2% and the Z score was -0.23. In the case of `c1ccc(-c2nnc(N3CC4(CCOCC4)[C@@H]4CCC[C@@H]43)s2)nc1`, the “% Inhibition” value is reported as 11% and the Z score is reported as -2.05. For `Cc1nnsc1CN(C)Cc1cncn1C(C)C`, the “% Inhibition” value was -6% and the Z score was 1. In the case of `O=C(NCC1CC1)c1ccc(CN2CCN(c3cccc(Cl)c3)CC2)o1`, the “% Inhibition” value is reported as -13% and the Z score is reported as 1.77. With `COc1ccc(OC)c(NC(=O)Cn2cnc3cc4c(cc32)OCCO4)c1` the “% Inhibition” value was -9% and the Z score was 0.87. For `O=C(NC1CCN(C(=O)N2CCCCC2)CC1)c1ccc(O)c(Cl)c1`, the “% Inhibition” value was 3% and the Z score was -0.39. With `Cc1noc(C)c1CN1CCCS1(=O)=O` the “% Inhibition” value was 12% and the Z score was -1.18. In the case of `CCN(CC)c1ncnc(Oc2ccc(F)cc2)c1N`, the “% Inhibition” value is reported as -5% and the Z score is reported as 0.57. With `Cc1c(C(=O)N(Cc2ccncc2)Cc2cccs2)nnn1C` the “% Inhibition” value was 2% and the Z score was -0.44.
